Data: PubChem BioAssay AID1508642 (National Center for Advancing Translational Sciences (NCATS), 2021)
Among all 43,000 compounds or so, about 200 (0.47%) were called active. Another 12% or so got no clear call; they are omitted. The call rests on the fitted dose curve; in most records, active means well fitted cell-killing curve with a large enough effect; inconclusive means small, poorly fitted or top-dose-only effect, or effect the other way; inactive means flat fitted curve, though single readings scatter. The list shows a part of the results.

assay: Cell viability qHTS assay in S16 Pmp22-F2sN cells; details: S16 Pmp22-F2sN Schwann cells (luciferase reporters placed in the Pmp22 gene) viability, CellTiter-Glo, 24 h; series mostly up to 57.5 µM; activity change, negative = cytotoxicity: at the top concentration; further: nearly all actives have a fitted effect of over 65% in size
Method in brief: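 CellTiter-Glo counter-screen, qHTS, 1536-well. Cells: S16(c9) Pmp22-F2sN, 500-1,000/well in DMEM + 10% FBS. Cpd 23 nL pin transfer, 24 h, 37C/5% CO2. Read: luminescence, CCD imager.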
On the % scale 0 is the no-effect control and ±100 the full control effect.

SMILES	activity change, negative = cytotoxicity
Cc1ccccc1NC(=O)CSc1nccn1C	inactive: 14.3%
Cc1nnc(N2CCC(C(=O)NC3CCC(C)CC3)CC2)c2nn(-c3ccc(Cl)cc3)c(C)c12 (stereo unspecified)	inactive: -1.83%
COC(=O)c1cc2sccc2n1Cc1c(C)cc(C)cc1C	inactive: 4.5%
COc1ccc(NC(=O)C2CCCN(S(=O)(=O)c3ccc4[nH]c(=O)ccc4c3)C2)cc1Cl (stereo unspecified)	inactive: 6.1%
NC(=O)c1c(NC(=O)CS(=O)(=O)c2ccc(Cl)cc2)sc2c1CCCC2	inactive: -4.41%
O=C(c1cccc(Cl)c1)N(Cc1cccc(F)c1)C1CCS(=O)(=O)C1 (stereo unspecified)	inactive: 2.96%
CCCSc1nnc(NC(=O)c2cc(=O)c3ccccc3o2)s1	inactive: 6.28%
COc1ccc(S(=O)(=O)N(CCc2ccccc2)CC(=O)Nc2cc(Cl)ccc2C)cc1	inactive: -2.97%
CCOC(=O)N1CCc2c(sc3c2c(=O)n(CCc2ccccc2)c(=O)n3CC(=O)Nc2ccccc2C)C1	inactive: -0.155%
Cc1ccc(-c2nn(CCC(=O)Nc3ccc(OC(F)(F)F)cc3)c(=O)c3ccccc23)cc1	inactive: 6.69%
Cc1ccc(NC(=O)C2CCN(C(=O)c3sc4nc[nH]c(=O)c4c3C)CC2)cc1F	inactive: 7.91%
COc1ccccc1C(=O)Nc1ccccc1OCc1cc(=O)n2cc(C)sc2n1	inactive: 11.2%
CCOc1cccc(C(=O)N(Cc2ccc(C(C)C)cc2)C2CCS(=O)(=O)C2)c1 (stereo unspecified)	inactive: -10.4%
COc1ccc(Cc2c(C)nn(-c3nc(C)c(C(=O)Nc4cccc(C(C)=O)c4)s3)c2C)cc1	inactive: -3.05%
CCS(=O)(=O)c1nc(S(=O)(=O)c2ccc(Cl)cc2)c(NCc2ccc(Cl)cc2)s1	inactive: 2.96%
CCOC(=O)c1[nH]c(C)c(CCC(=O)N2CCN(c3ccc(Cl)cc3)CC2)c1C	inactive: -30.3%
COc1ccc(-c2ccc(=O)n(CC(=O)Nc3ccc(Br)cc3F)n2)cc1	inactive: 10.2%
Cn1c(=O)c2c(-c3ccccc3)n(-c3cccc(C#N)c3)cc2n(C)c1=O	inactive: 3.93%
O=C(O)c1ccc(Nc2ncnc3scc(-c4ccccc4)c23)cc1	inactive: -0.215%
Cc1ccc2c(c1)N(C(=O)c1ccc(F)cc1)C(C)(C)CC2(C)c1ccccc1 (stereo unspecified)	inactive: -3.73%
COC(=O)c1cc(OC)c(OC)cc1NC(=O)c1ccc2c(c1)CCN2S(C)(=O)=O	inactive: -0.7%
CCc1ccccc1N1C(=O)N(Cc2cc(=O)n3ccccc3n2)c2ccccc2S1(=O)=O	inactive: 16.1%
O=C(NCc1ccccc1)c1c2c(nc3ccccc13)C(=O)N(C1CCCCC1)C2	inactive: 7.1%
CCC(C(=O)NCc1ccccc1Cl)n1c(=O)c2cccn2c2ccccc21 (stereo unspecified)	inactive: -0.812%

SMILES	activity change, negative = cytotoxicity
Cc1cc(OC(C)C(=O)N(Cc2ccco2)Cc2ccco2)cc(C)c1Cl (stereo unspecified)	inactive: -18.5%
CC(C)c1ccc(NC(=O)[C@H]2O[C@@H]3OC(C)(C)O[C@@H]3[C@H]3OC(C)(C)O[C@H]32)cc1	inactive: 23.9%
Cc1nn(CC(=O)N2CCN(c3ccccc3F)CC2)c(=O)c2cccn12	inactive: 6.47%
CCN(CC)c1ccc2nc3c(=O)n(C)c(=O)n(C)c3nc2c1	inactive: 5.16%
CCOc1ccc(-c2nnc(SCC(=O)NC3CCCCC3)nc2-c2ccc(OCC)c(OC)c2)cc1OC	inactive: -7.12%
CCN1C(=O)c2ccccc2S(=O)(=O)c2ccc(C(=O)NCc3ccc(C)cc3)cc21	inactive: 3.62%
COc1ccc(CNC(=O)CCn2c(=O)c3cccn3c3ccc(F)cc32)cc1OC	inactive: -3.68%
CCc1ccc2occ(CC(=O)Nc3nnc(SC)s3)c2c1	inactive: -1.26%
CCn1nc(C)c(CCN(C)C(=O)Nc2cc(Cl)c(OC)cc2OC)c1C	inactive: 7.34%
O=C(CSc1oc(-c2ccc(F)cc2)nc1S(=O)(=O)c1ccccc1)c1ccc(Cl)cc1	inactive: 2.49%
CC(C)c1nn2c(=O)cc(COC(=O)c3cccc(NC(=O)CCc4ccccc4)c3)nc2s1	inactive: -11.9%
CCN(Cc1ccccc1)C(=O)Cn1c(=O)cc(C)c2c(C)nn(-c3cccc(F)c3)c21	inactive: -15.2%
COc1ccc(NC(=O)CN2C(=O)C(c3ccccc3)=NC23CCC(C)CC3)cc1Cl (stereo unspecified)	inactive: -18.1%
CCOC(=O)C(Cc1ccccc1)NC(=O)Cn1nnc(-c2ccc(C)cc2)n1 (stereo unspecified)	inactive: 21.6%
CN(C)S(=O)(=O)N(CC(=O)NCCSCc1ccc(Cl)cc1Cl)c1ccccc1	inactive: -6.04%
CSc1ccc(CCNC(=O)C2CCCN(S(=O)(=O)N(C)c3ccc(F)cc3)C2)cc1 (stereo unspecified)	inactive: -4.84%
COc1ccc(C(C)C)cc1S(=O)(=O)NCCc1c(C)[nH]c2c(Cl)cccc12	inactive: -17.7%
C[C@H](NC(=O)OC(C)(C)C)c1nnc(SCc2ccc(Cl)cc2Cl)o1	inactive: 25.2%
COc1ccc(-n2ccnc(NCCc3ccc(S(N)(=O)=O)cc3)c2=O)cc1Cl	inactive: -28.8%
Cc1cccn2c(=O)cc(COc3cccc(NC(=O)Nc4cccc(Cl)c4)c3)nc12	inactive: 3.21%
O=C1Cc2cc(S(=O)(=O)Nc3cccc(C(F)(F)F)c3)cc3c2N1CCC3	inactive: -15.6%
Cc1ccc(NC(=O)Cn2cc(S(=O)(=O)Cc3ccccc3)c3ccccc32)cc1C	inactive: -16.4%
COC(=O)c1cc2occc2n1Cc1nc(-c2ccc(Cl)cc2)oc1C	inactive: 7.72%
CCc1ccc(S(=O)(=O)c2cn(C)c3ccc(C)cc3c2=O)cc1	inactive: 9.29%

SMILES	activity change, negative = cytotoxicity
CCOC(=O)c1ccc(N2C(=O)c3n[nH]c(C)c3C2c2ccc(CC)cc2)cc1 (stereo unspecified)	inactive: 25.4%
CCc1ccccc1NC(=O)Cn1nc(C)c2nn(-c3ccc(Cl)cc3)c(C)c2c1=O	inactive: -1.17%
CCOCCCNC(=O)CN1C(=O)CCn2nc(-c3cccn3C)cc21	inactive: 1.74%
CCCCN(CC)CCCNC(=O)c1nn(-c2ccc(OC)cc2)c(=O)c2c1c1ccccc1n2C	inactive: 26.7%
O=C(Nc1ncc(Cc2ccccc2Cl)s1)c1ccc2c(c1)CC(c1ccccc1)OC2=O (stereo unspecified)	inactive: 9.76%
CNC(=O)C1CCC(Cn2c(=O)c3sccc3n(CC(=O)Nc3ccccc3)c2=O)CC1 (stereo unspecified)	inactive: -24.5%
CC1CCc2nc3ncn(Cc4cccc(F)c4)c(=O)c3cc2C1 (stereo unspecified)	inactive: -1.69%
Cc1ccc(NC(=O)Cn2c(=O)n(CC(=O)NCCc3ccccc3)c(=O)c3ccccc32)cc1	inactive: 23.3%
CCc1ccccc1NC(=O)Cn1nnc(C(=O)NCc2cccc(OC)c2)c1N	inactive: -19.1%
COc1ccc(CC(=O)Nc2nnc3n2CCS3)cc1OC	inactive: -24%
COc1ccc(CNC(=O)CCc2c(C)nc3c4cccnc4nn3c2C)cc1	inactive: 11.4%
COCCNC(=O)c1cc(-c2cccc(Cl)c2)on1	inactive: 1.67%
CCCCN(CC)CCCNC(=O)c1sc2nc3n(c(=O)c2c1C)CCCCC3	inactive: 4.27%
Cc1ccc(CCNC(=O)CCCn2c(=O)c3cccn3c3ccc(F)cc32)cc1	inactive: -8.95%
COc1ccc(OC)c(NC(=O)N2CCC3(CC2)Oc2ccccc2C(=O)N3Cc2ccccc2F)c1	inactive: -4.23%
CCCCN(C)C(=O)c1ccc2c(c1)NC(=O)C(CC(C)C)N2 (stereo unspecified)	inactive: 0.272%
CCN1C(=O)C2(c3ccccc31)c1c(oc3ccccc3c1=O)C(=O)N2CCOC (stereo unspecified)	inactive: 15.9%
CCn1c(=O)c2sccc2n2c(CCCC(=O)Nc3ccc(Oc4ccccc4)cc3)nnc12	inactive: 26.6%
CCOc1ccccc1CNC(=O)CN1C(=O)c2cccnc2Oc2ccc(C)cc21	inactive: 3.82%
O=C(Nc1ccc(Br)cc1)c1cc(S(=O)(=O)N2CCc3ccccc32)ccc1F	inactive: -20.3%
Cc1ccc(-c2nc(-c3cccs3)c(-c3cccs3)[nH]2)cc1	inactive: 2.54%
Cc1ccc(OCCSc2nc3ccccc3n2CCC(=O)O)cc1	inactive: 2.87%
CN(Cc1ccccc1)c1nc2c(S(=O)(=O)c3ccccc3)nnn2c2ccsc12	inactive: 17.8%
Cc1c(C(=O)Nc2ccccc2F)sc2nc3n(c(=O)c12)CCC3	inactive: -2.47%

SMILES	activity change, negative = cytotoxicity
Cc1cc(C)cc(OCC(=O)N(Cc2ccco2)Cc2ccccc2Cl)c1	inactive: -10.5%
Cc1ccc(NC(=O)c2nc(S(C)(=O)=O)ncc2N(Cc2ccco2)Cc2ccco2)cc1	inactive: -4.81%
O=C(Nc1ccccc1)c1ccc(Cl)c(S(=O)(=O)Nc2ccccc2)c1	inactive: -7.94%
Cc1ccc(C(=O)c2cn(Cc3ccccc3)c3c(F)cc(F)cc3c2=O)cc1	inactive: -4.52%
CCS(=O)(=O)N1CCC2(CC1)OC(=O)C(C)=C2C(=O)NCc1ccc(OC)c(OC)c1	inactive: -5.52%
CCOc1ccccc1CNC(=O)CN1C(=O)c2cccnc2Oc2ccc(Cl)cc21	inactive: -17.4%
COc1ccc(S(=O)(=O)N2CCCCC2)cc1C(=O)NC1CCS(=O)(=O)C1 (stereo unspecified)	inactive: -6.71%
Cn1c(=O)c(=O)n(C)c2cc(N3CCCC3)c(NC(=O)c3ccccc3Cl)cc21	inactive: 3.03%
COc1ccc(N2CCN(C(=O)c3cn(C)c4ccc(S(=O)(=O)N5CCOCC5)cc4c3=O)CC2)cc1	inactive: -2.19%
Cc1cc(Nc2cccc(Cl)c2)nc2ccc(NC(=O)Cc3c(F)cccc3Cl)cc12	inactive: -0.999%
CCC1Oc2ccccc2N(CC(=O)NCc2ccccc2)C1=O (stereo unspecified)	inactive: 16.3%
Cc1cc2oc(C(=O)Nc3sc4c(c3C(=O)NCC3CCCO3)CCCC4)cc(=O)c2cc1C (stereo unspecified)	inactive: 1.49%
CCS(=O)(=O)N1CCc2cc(C(=O)Nc3cc(C)cc(C)c3)ccc21	inactive: 18.1%
COC(=O)c1ccc2c(c1)N(CC(=O)Nc1ccc(C)c(C)c1)C(=O)c1ccccc1S2	inactive: 17%
Cc1ccc(C)c(N2CCN(C(=O)NCc3noc4ccccc34)CC2)c1	inactive: 1.51%
COc1ccc(OC)c(CCNc2nc3cc(OC)c(OC)cc3c3nc(-c4cccnc4)nn23)c1	inactive: 2.36%
CCCCN(CC)CCNC(=O)CN1C(=O)COc2ccc(S(=O)(=O)N3CCOCC3)cc21	inactive: -0.169%
COc1ccc(CCNC(=O)c2ccc3[nH]c(C)c(C)c3c2)cc1OC	inactive: 2.01%
Cn1c(=O)c2c(-c3ccc(Cl)cc3)ccnc2n(C)c1=O	inactive: 17.6%
CCN(CC)c1ccc(NC(=O)C(NS(=O)(=O)c2cccs2)C(C)C)c(C)c1 (stereo unspecified)	inactive: 7.68%
O=C(OCc1ccccc1F)c1ccc(-c2nnn(Cc3ccccc3)n2)cc1	inactive: 2.55%
O=C(Cc1ccccc1)NC1CC(=O)N(c2ccc3c(c2)OCCO3)C1 (stereo unspecified)	inactive: 12.2%
Cc1cc2c(cc1S(=O)(=O)CCC(=O)NCc1ccccc1)OCC(=O)N2	inactive: 0.529%
COc1ccc(-n2nnnc2C2CCN(S(=O)(=O)c3cccc(Cl)c3C)CC2)cc1	inactive: 15.1%
